{"source": "patent US20260034244A1", "about": "(PANOLOS BIOSCIENCE, published 2026)", "binders": {"B1": {"name": "C56 (Fc fusion)", "chain": "EFGRPFVEMYSEIPEIIHMTEGRELVIPCRVTSPNITVTLKKFPLDTLIPDGKRIIWDSRKGFIISNATYKEIGLLTCEATVNGHLYKTNYLTHRQTNTIIDVQISTPSPVTLLRGHTLVLNCTATTPLNTRVQMTWSYPDEKNKNASVRRRIDQSNSHANIFYSVLTIDKMQNKDKGLYTCRVRSGPSFKSVNTSVHIYDGGGGSGGGGSGGGGSGGGGSA[gap - human IgG1 Fc with C220S H224Y (EU numbers)]", "notes": "Based on VEGF-Grab3; IgG1 Fc"}, "B2": {"name": "C45 (Fc fusion)", "chain": "EFGRPFVEMYSEIPEIIHMTEGRELVIPCRVTSPNITVTLKKFPLDTLIPDGKRIIWDSRKGFIISNATYKEIGLLTCEATVNGHLYKTNYLTHRQTNTIIDVQISTPSPVTLLRGHTLVLNCTATTPLNTRVQMTWSYPDEKNKNASVRRRIDQSNSHANIFYSVLTIDKMQNKDKGLYTCRVRSGPSFKSVNTSVHIYDEGSSGGSSGEPKS[gap - human IgG1 Fc and a few adjoining residues]", "notes": "Based on VEGF-Grab3; IgG1 Fc"}, "B3": {"name": "C32 (Fc fusion)", "chain": "EFGRPFVEMYSEIPEIIHMTEGRELVIPCRVTSPNITVTLKKFPLDTLIPDGKRIIWDSRKGFIISNATYKEIGLLTCEATVNGHLYKTNYLTHRQTNTIIDVQISTPSPVTLLRGHTLVLNCTATTPLNTRVQMTWSYPDEKNKNASVRRRIDQSNSHANIFYSVLTIDKMQNKDKGLYTCRVRSGPSFKSVNTSVHIYDGSSG[gap - human IgG1 Fc with changes]", "notes": "Based on VEGF-Grab3; IgG1 Fc"}, "B4": {"name": "C43 (Fc fusion)", "chain": "EFGRPFVEMYSEIPEIIHMTEGRELVIPCRVTSPNITVTLKKFPLDTLIPDGKRIIWDSRKGFIISNATYKEIGLLTCEATVNGHLYKTNYLTHRQTNTIIDVQISTPSPVTLLRGHTLVLNCTATTPLNTRVQMTWSYPDEKNKNASVRRRIDQSNSHANIFYSVLTIDKMQNKDKGLYTCRVRSGPSFKSVNTSVHIYDGSNTGSGGEEKKKEKEKEEQEERSS[gap - human IgG1 Fc with H224Y (EU numbers)]", "notes": "Based on VEGF-Grab3; IgG1 Fc"}, "B5": {"name": "C44 (Fc fusion)", "chain": "EFGRPFVEMYSEIPEIIHMTEGRELVIPCRVTSPNITVTLKKFPLDTLIPDGKRIIWDSRKGFIISNATYKEIGLLTCEATVNGHLYKTNYLTHRQTNTIIDVQISTPSPVTLLRGHTLVLNCTATTPLNTRVQMTWSYPDEKNKNASVRRRIDQSNSHANIFYSVLTIDKMQNKDKGLYTCRVRSGPSFKSVNTSVHIYDGSNTGSGGEEKKKEKEKEEQEERSSDTPP[gap - human IgG1 Fc]", "notes": "Based on VEGF-Grab3; IgG1 Fc"}, "B6": {"name": "C34 (Fc fusion)", "chain": "EFGRPFVEMYSEIPEIIHMTEGRELVIPCRVTSPNITVTLKKFPLDTLIPDGKRIIWDSRKGFIISNATYKEIGLLTCEATVNGHLYKTNYLTHRQTNTIIDVQISTPSPVTLLRGHTLVLNCTATTPLNTRVQMTWSYPDEKNKNASVRRRIDQSNSHANIFYSVLTIDKMQNKDKGLYTCRVRSGPSFKSVNTSVHIYDGSSGEPKSSDKTYTS[gap - human IgG1 Fc with changes]", "notes": "Based on VEGF-Grab3; IgG1 Fc"}, "B7": {"name": "C36 (Fc fusion)", "chain": "EFGRPFVEMYSEIPEIIHMTEGRELVIPCRVTSPNITVTLKKFPLDTLIPDGKRIIWDSRKGFIISNATYKEIGLLTCEATVNGHLYKTNYLTHRQTNTIIDVQISTPSPVTLLRGHTLVLNCTATTPLNTRVQMTWSYPDEKNKNASVRRRIDQSNSHANIFYSVLTIDKMQNKDKGLYTCRVRSGPSFKSVNTSVHIYDGSKVDKKV[gap - human IgG1 Fc with C220S (EU numbers)]", "notes": "Based on VEGF-Grab3; IgG1 Fc"}, "B8": {"name": "C39 (Fc fusion)", "chain": "EFGRPFVEMYSEIPEIIHMTEGRELVIPCRVTSPNITVTLKKFPLDTLIPDGKRIIWDSRKGFIISNATYKEIGLLTCEATVNGHLYKTNYLTHRQTNTIIDVQISTPSPVTLLRGHTLVLNCTATTPLNTRVQMTWSYPDEKNKNASVRRRIDQSNSHANIFYSVLTIDKMQNKDKGLYTCRVRSGPSFKSVNTSVHIYDGSKVDKKVEPKSSDTPP[gap - human IgG1 Fc]", "notes": "Based on VEGF-Grab3; IgG1 Fc"}, "B9": {"name": "C37 (Fc fusion)", "chain": "EFGRPFVEMYSEIPEIIHMTEGRELVIPCRVTSPNITVTLKKFPLDTLIPDGKRIIWDSRKGFIISNATYKEIGLLTCEATVNGHLYKTNYLTHRQTNTIIDVQISTPSPVTLLRGHTLVLNCTATTPLNTRVQMTWSYPDEKNKNASVRRRIDQSNSHANIFYSVLTIDKMQNKDKGLYTCRVRSGPSFKSVNTSVHIYDGSKVDKKV[gap - human IgG1 Fc with C220S H224Y (EU numbers)]", "notes": "Based on VEGF-Grab3; IgG1 Fc"}, "B10": {"name": "C41 (Fc fusion)", "chain": "EFGRPFVEMYSEIPEIIHMTEGRELVIPCRVTSPNITVTLKKFPLDTLIPDGKRIIWDSRKGFIISNATYKEIGLLTCEATVNGHLYKTNYLTHRQTNTIIDVQISTPSPVTLLRGHTLVLNCTATTPLNTRVQMTWSYPDEKNKNASVRRRIDQSNSHANIFYSVLTIDKMQNKDKGLYTCRVRSGPSFKSVNTSVHIYDGSGGGGSGGGGSGGGGSAESKYGPP[gap - human IgG1 Fc]", "notes": "Based on VEGF-Grab3; IgG1 Fc"}, "B11": {"name": "C52 (Fc fusion)", "chain": "EFGRPFVEMYSEIPEIIHMTEGRELVIPCRVTSPNITVTLKKFPLDTLIPDGKRIIWDSRKGFIISNATYKEIGLLTCEATVNGHLYKTNYLTHRQTNTIIDVQISTPSPVTLLRGHTLVLNCTATTPLNTRVQMTWSYPDEKNKNASVRRRIDQSNSHANIFYSVLTIDKMQNKDKGLYTCRVRSGPSFKSVNTSVHIYDGGGGSAEPKAGDKAPPG[gap - human IgG1 Fc with C229G (EU numbers)]", "notes": "Based on VEGF-Grab3; IgG1 Fc"}, "B12": {"name": "C55 (Fc fusion)", "chain": "EFGRPFVEMYSEIPEIIHMTEGRELVIPCRVTSPNITVTLKKFPLDTLIPDGKRIIWDSRKGFIISNATYKEIGLLTCEATVNGHLYKTNYLTHRQTNTIIDVQISTPSPVTLLRGHTLVLNCTATTPLNTRVQMTWSYPDEKNKNASVRRRIDQSNSHANIFYSVLTIDKMQNKDKGLYTCRVRSGPSFKSVNTSVHIYDGGGGSA[gap - human IgG1 Fc with C220S H224Y (EU numbers)]", "notes": "Based on VEGF-Grab3; IgG1 Fc"}, "B13": {"name": "C37 (Fc fusion)", "chain": "B9 chain", "notes": "Linker variant based on VEGF-Grab3; control of the disulfide bond variants"}, "B14": {"name": "C36 (Fc fusion)", "chain": "B7 chain", "notes": "Linker variant based on VEGF-Grab3"}}}
{"molecular_target": "T1, VEGF-A (UniProt P15692-4 27-191, limits assumed)", "T1 construct": "also called vascular endothelial growth factor A", "T1 sequence (looked up)": "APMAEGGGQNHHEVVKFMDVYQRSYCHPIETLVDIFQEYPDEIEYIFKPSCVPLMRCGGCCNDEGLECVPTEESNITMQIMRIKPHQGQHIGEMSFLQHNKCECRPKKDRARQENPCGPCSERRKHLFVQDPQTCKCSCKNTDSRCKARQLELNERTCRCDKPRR", "test": "BLI Octet; fold increase vs VEGF-Grab3 (Panolos Bioscience)", "units": {"Fold (KD)": "fold", "Fold (kdis)": "fold", "Fold (kon)": "fold"}}
{"binder": "B1", "Fold (KD)": 0.26, "Fold (kdis)": 0.22, "Fold (kon)": 1.16}
{"binder": "B2", "Fold (KD)": 0.56, "Fold (kdis)": 0.52, "Fold (kon)": 1.08}
{"binder": "B3", "Fold (kdis)": 1.59, "Fold (kon)": 1.34}
{"binder": "B4", "Fold (KD)": 0.43, "Fold (kdis)": 0.3, "Fold (kon)": 1.42}
{"binder": "B5", "Fold (KD)": 0.35, "Fold (kdis)": 0.23, "Fold (kon)": 1.5}
{"binder": "B6", "Fold (KD)": 1.22, "Fold (kdis)": 0.87, "Fold (kon)": 1.4}
{"binder": "B7", "Fold (KD)": 0.73, "Fold (kdis)": 0.61, "Fold (kon)": 1.19}
{"binder": "B8", "Fold (KD)": 0.77, "Fold (kdis)": 0.59, "Fold (kon)": 1.3}
{"binder": "B9", "Fold (KD)": 0.83, "Fold (kdis)": 0.7, "Fold (kon)": 1.19}
{"binder": "B10", "Fold (KD)": 0.4, "Fold (kdis)": 0.3, "Fold (kon)": 1.36}
{"binder": "B11", "Fold (KD)": 0.24, "Fold (kdis)": 0.2, "Fold (kon)": 1.19}
{"binder": "B12", "Fold (KD)": 0.3, "Fold (kdis)": 0.29, "Fold (kon)": 1.06}
{"molecular_target": "T2, PLGF (UniProt P49763-2 19-149, limits assumed)", "T2 construct": "also called placental growth factor", "T2 sequence (looked up)": "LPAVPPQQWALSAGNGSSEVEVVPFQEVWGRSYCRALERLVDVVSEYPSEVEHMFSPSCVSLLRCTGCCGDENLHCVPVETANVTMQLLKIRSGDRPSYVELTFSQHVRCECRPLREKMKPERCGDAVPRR", "test": "BLI Octet; fold increase vs VEGF-Grab3 (Panolos Bioscience)", "units": {"Fold (KD)": "fold", "Fold (kdis)": "fold", "Fold (kon)": "fold"}}
{"binder": "B1", "Fold (KD)": 2.16, "Fold (kdis)": 1.7, "Fold (kon)": 1.44}
{"binder": "B2", "Fold (KD)": 1.81, "Fold (kdis)": 1.23, "Fold (kon)": 1.47}
{"binder": "B3", "Fold (KD)": 3.08, "Fold (kdis)": 3.14, "Fold (kon)": 0.98}
{"binder": "B4", "Fold (KD)": 1.86, "Fold (kdis)": 2.44, "Fold (kon)": 0.76}
{"binder": "B5", "Fold (KD)": 1.73, "Fold (kdis)": 1.16, "Fold (kon)": 1.49}
{"binder": "B6", "Fold (KD)": 2.28, "Fold (kdis)": 3.76, "Fold (kon)": 0.61}
{"binder": "B7", "Fold (KD)": 1.54, "Fold (kdis)": 1.05, "Fold (kon)": 1.47}
{"binder": "B8", "Fold (KD)": 4.64, "Fold (kdis)": 2.17, "Fold (kon)": 2.14}
{"binder": "B9", "Fold (KD)": 0.94, "Fold (kdis)": 1.09, "Fold (kon)": 0.86}
{"binder": "B10", "Fold (KD)": 3.63, "Fold (kdis)": 1.73, "Fold (kon)": 2.09}
{"binder": "B11", "Fold (KD)": 1.67, "Fold (kdis)": 1.17, "Fold (kon)": 1.42}
{"binder": "B12", "Fold (KD)": 1.47, "Fold (kdis)": 1.36, "Fold (kon)": 1.09}
{"molecular_target": "T3, VEGF-A (UniProt P15692-4 27-191, limits assumed)", "T3 construct": "Analyte at 40, 20, 10 nM; also called vascular endothelial growth factor A", "T3 sequence (looked up)": "T1 sequence (looked up)", "test": "BLI (Octet), fusion captured on AHC sensor; fold increase vs VEGF-Grab3 (Samsung Biologics)", "units": {"Fold (KD)": "fold", "Fold (kdis)": "fold", "Fold (kon)": "fold"}}
{"binder": "B13", "Fold (KD)": 0.22, "Fold (kdis)": 0.16, "Fold (kon)": 1.36}
{"binder": "B14", "Fold (KD)": 0.2, "Fold (kdis)": 0.14, "Fold (kon)": 1.36}
{"molecular_target": "T4, PLGF (UniProt P49763-2 19-149, limits assumed)", "T4 construct": "also called placental growth factor", "T4 sequence (looked up)": "T2 sequence (looked up)", "test": "BLI (Octet), fusion captured on AHC sensor; fold increase vs VEGF-Grab3 (Samsung Biologics)", "units": {"Fold (KD)": "fold", "Fold (kdis)": "fold", "Fold (kon)": "fold"}}
{"binder": "B13", "Fold (KD)": 1.35, "Fold (kdis)": 1.33, "Fold (kon)": 1.01}
{"binder": "B14", "Fold (KD)": 2.21, "Fold (kdis)": 1.29, "Fold (kon)": 1.72}
